The shares of active, inactive and inconclusive entries below differ from those in the screen. A call without a number means that no potency is given here. For some assays here: Potencies beside an inconclusive call are fits to weak or partial responses and may not hold up. The source made the active and inactive calls. Unless noted, calls follow the shape of the dose curve; as a rule, active = well fitted curve in the direction sought with a large enough effect in the repeat runs; inconclusive = weak or mixed curves; inactive = no such curve, though single readings can be large; an effect the other way counts as inactive or inconclusive.
Key:
[1] = target: Peroxisome proliferator-activated receptor gamma (Homo sapiens) (UniProt P37231); experiment: qHTS assay to identify small molecule agonists of the peroxisome proliferator-activated receptor gamma (PPARg) signaling pathway (AID 743094; active = well fitted activation curve with a large enough effect in the signal ratio in the repeat runs, not every such curve was filed as active; inconclusive = weak or mixed curves, or effect the other way; inactive = no such curve, though single readings can be large or run the other way; the % refers to the signal ratio); conditions: HEK293H PPARg-UAS-bla, beta-lactamase FRET ratio, 17 h; activation: at 57 µM (top of the series) unless noted
Procedure, shortened: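 Stably transfected HEK293H cells (GeneBLAzer PPARg UAS-bla) were incubated with test substances for 17 h at 37C after a 5 h pre-incubation; beta-lactamase activity was then detected by FRET substrate fluorescence.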

[2] = qHTS assay to identify small molecule agonists of the vitamin D receptor (VDR) signaling pathway - cell viability counter screen (AID 743224); also: nearly all actives have a fitted effect of over 50% in size
Procedure, shortened: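 VDR-bla cell line, quantitative HTS format; 16 h compound incubation (37C, 5% CO2); ATP-based CellTiter-Glo luminescence measured in the reporter assay wells.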

[3] = A CellTox Green Cytotoxicity Assay to monitor cytotoxicity in HEK293 cells - 40 hour (AID 1224871); also: nearly all actives have a fitted effect of over 45% in size; also: potency is read from the fitted curve at half-maximal effect
Procedure, shortened: (§1)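 Each value comes from one timepoint of a single continuous run in which HEK293 cells with CellTox Green were exposed to compound for up to 40 h at 37 C, dye fluorescence rising with cell death.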

[4] = qHTS assay to identify small molecule antagonists of the androgen receptor (AR) signaling pathway - cell viability counter screen (AID 743033; also: nearly all actives have a fitted effect of over 45% in size; also: potency is read from the fitted curve at half-maximal effect)
[5] = qHTS assay to identify small molecule antagonists of the estrogen receptor alpha (ER-alpha) signaling pathway using the BG1 cell line - cell viability counter screen (AID 743081); conditions: BG1Luc4E2 viability, CellTiter-Fluor, 22 h; activity change, negative = cytotoxicity: at 70.3 µM (top of the series);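 also: compound given together with 17beta-estradiol as the ER stimulus; potency is read from the fitted curve at half-maximal effect; nearly all actives have a fitted effect of over 45% in size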
[6] = qHTS assay to identify small molecule agonists of the constitutive androstane receptor (CAR) signaling pathway - cell viability counter screen (AID 1224836); also: nearly all actives have a fitted effect of over 45% in size; also: potency is read from the fitted curve at half-maximal effect
Procedure, shortened: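 Fluorescence from CellTiter-Fluor indicates live cells after 23 h exposure. The human hepatoma line expresses hCAR and a CYP2B6-2.2kb reporter. Incubation medium contains 0.75 uM PK11195 (final).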

[7] = qHTS assay to identify small molecule agonists of the estrogen receptor alpha (ER-alpha) signaling pathway in the presence of an antagonist - cell viability counter screen (AID 1259386);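 also: cells exposed to compounds for 22 h at 37 °C before the viability read; nearly all actives have a fitted effect of over 30% in size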; also: potency is read from the fitted curve at half-maximal effect
Procedure, shortened: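 Fluorescent CellTiter-Fluor viability signal from VM7Luc4E2 cells, with the reagent added during the final hour of a 22hr compound exposure at 37C in the presence of 10.0nM ICI-182,780.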

[8] = A CellTox Green Cytotoxicity Assay to monitor cytotoxicity in HepG2 cells - 32 hour (AID 1224883); also: nearly all actives have a fitted effect of over 50% in size; also: potency is read from the fitted curve at half-maximal effect
Procedure, shortened: (§2)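 Continuous culture of HepG2 cells with a membrane-impermeant DNA dye; rising fluorescence marks dead cells. Compound exposure lasted up to 40 h at 37 C, with reads every 8 h from 0 h.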

[9] = A CellTox Green Cytotoxicity Assay to monitor cytotoxicity in HepG2 cells - 24 hour (AID 1224878); also: nearly all actives have a fitted effect of over 45% in size
Procedure, shortened: as §2

[10] = qHTS assay to identify small molecule antagonists of the estrogen receptor beta (ER-beta) signaling pathway - cell viability counter screen (AID 1259382); also: nearly all actives have a fitted effect of over 55% in size; also: potency is read from the fitted curve at half-maximal effect;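 as to activity change, negative = cytotoxicity: HEK293T cells carrying ER-beta-UAS-bla reporter stimulated with estradiol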
Procedure, shortened: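 Tox21 10K library tested in qHTS format on ER-beta-bla HEK293T cells stimulated with 1nM E2; 16 hr treatment at 37C. Same-well CellTiter-Glo luminescence served as the cell viability measure.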

[11] = qHTS assay to identify small molecule antagonists of the androgen receptor (AR) signaling pathway using the MDA cell line - cell viability counter screen (AID 743041; also: nearly all actives have a fitted effect of over 45% in size); conditions: MDA-kb2 viability, CellTiter-Fluor, 16 h, cells co-treated with R1881 androgen agonist; viability change, negative = cytotoxic: at 70.3 µM (top of the series)
Procedure, shortened: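 Viability counter screen run alongside the AR antagonist reporter: cells seeded 5 h before compound, R1881 added, 16 h incubation at 37C without CO2, fluorescent CellTiter-Fluor signal quantified.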

[12] = target: Aryl hydrocarbon receptor (Homo sapiens) (UniProt P35869); experiment: qHTS assay to identify small molecule that activate the aryl hydrocarbon receptor (AhR) signaling pathway (AID 743085); also: potency is read from the fitted curve at half-maximal effect; nearly all actives have a fitted effect of over 15% in size
Procedure, shortened: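 Reporter assay in engineered HepG2 line HG2L7.5c1, whose plasmid carries twenty dioxin responsive elements upstream of firefly luciferase. Treatment lasted 24 h at 37C; ONE-Glo luminescence gauged induction.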

[13] = qHTS assay to identify small molecule antagonists of the TGF-beta/Smad signaling pathway - cell viability counter screen (AID 1346824); also: nearly all actives have a fitted effect of over 50% in size; also: potency is read from the fitted curve at half-maximal effect
Procedure, shortened: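 SBE-bla HEK 293T cells were plated overnight at 37 C, then given compounds in DMSO plus TGF-beta1 (added as 0.25 ng/mL solution) for 5 hr. After the bla read, CellTiter-Glo was added to the same wells and luminescence read after 30 min at room temperature.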

[14] = A CellTox Green Cytotoxicity Assay to monitor cytotoxicity in HEK293 cells - 32 hour (AID 1224881); also: nearly all actives have a fitted effect of over 40% in size; also: potency is read from the fitted curve at half-maximal effect
Procedure, shortened: as §1

[15] = target: Bile acid receptor (Homo sapiens) (UniProt Q96RI1); experiment: qHTS assay to identify small molecule antagonists of the farnesoid-X-receptor (FXR) signaling pathway (AID 743217; active = well fitted inhibition curve with a large enough effect in the signal ratio in the repeat runs, not every such curve was filed as active; inconclusive = weak or mixed curves, or effect the other way; inactive = no such curve, though single readings can be large or run the other way; the % refers to the signal ratio); conditions: HEK293T FXR-UAS-bla, beta-lactamase ratio, CDCA-stimulated, 16 h; activity change, negative = inhibition: at 62.6 µM (top of the series) unless noted
Procedure, shortened: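 Beta-lactamase reporter under UAS control in HEK 293T cells; compound exposure 16 h at 37 °C in the presence of chenodeoxycholic acid (50 uM final); signal from B/G FRET substrate after 2 h at room temperature.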

[16] = A CellTox Green Cytotoxicity Assay to monitor cytotoxicity in HepG2 cells - 40 hour (AID 1224879); also: nearly all actives have a fitted effect of over 40% in size; also: potency is read from the fitted curve at half-maximal effect
Procedure, shortened: as §2

[17] = qHTS assay to identify small molecule antagonists of the sonic hedgehog signaling (Shh) pathway - cell viability counter screen (AID 1259367); also: nearly all actives have a fitted effect of over 55% in size; also: potency is read from the fitted curve at half-maximal effect
Procedure, shortened: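 After a 4 hr settling period, 3T3 Gli1-Luc cells were treated with DMSO-dissolved chemicals and conditioned medium, kept 24 hr at 37C in 5% CO2, and assayed for viability by CellTiter-Fluor fluorescence following 1 hr reagent incubation.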

[18] = target: Thyrotropin receptor (Homo sapiens) (UniProt P16473); experiment: qHTS assay to identify small molecule antagonists of the thyroid stimulating hormone receptor (TSHR) signaling pathway (AID 1259385; calls by dose curve; also: nearly all actives have a fitted effect of over 20% in size; also: potency is read from the fitted curve at half-maximal effect); conditions: TSHR-HEK293 cAMP HTRF, TSH-stimulated antagonist mode; activity change, negative = inhibition: at 92.4 µM (top of the series)
Procedure, shortened: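 TSHR-HEK293 cells were plated and held 18 h at 37C/5% CO2, then given compound plus Ro20-1724 and stimulated with TSH at 1.5 ng/mL final. After 30 min at room temperature, cAMP was detected with cAMP-d2/anti-cAMP-cryptate (1 h) by fluorescence.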

[19] = qHTS assay for small molecule agonists of the antioxidant response element (ARE) signaling pathway - cell viability counter screen (AID 743203; calls by dose curve; also: nearly all actives have a fitted effect of over 55% in size; also: potency is read from the fitted curve at half-maximal effect); conditions: ARE-bla HepG2 viability, CellTiter-Glo luminescence, 16 h; viability change, negative = cytotoxic: at 73.3 µM (top of the series)
Procedure, shortened: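 Cells (ARE-bla HepG2, 2,000/well) receive DMSO-dissolved compounds after a 5 hrs rest. Plates incubate 16 hrs at 37C/5% CO2. CellTiter-Glo luminescence is then recorded after 30 min at room temperature.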
Tags tell the direction and shape of the fitted curve.

Sequence of UniProt Q96RI1 (Q96RI1 whole entry, looked up): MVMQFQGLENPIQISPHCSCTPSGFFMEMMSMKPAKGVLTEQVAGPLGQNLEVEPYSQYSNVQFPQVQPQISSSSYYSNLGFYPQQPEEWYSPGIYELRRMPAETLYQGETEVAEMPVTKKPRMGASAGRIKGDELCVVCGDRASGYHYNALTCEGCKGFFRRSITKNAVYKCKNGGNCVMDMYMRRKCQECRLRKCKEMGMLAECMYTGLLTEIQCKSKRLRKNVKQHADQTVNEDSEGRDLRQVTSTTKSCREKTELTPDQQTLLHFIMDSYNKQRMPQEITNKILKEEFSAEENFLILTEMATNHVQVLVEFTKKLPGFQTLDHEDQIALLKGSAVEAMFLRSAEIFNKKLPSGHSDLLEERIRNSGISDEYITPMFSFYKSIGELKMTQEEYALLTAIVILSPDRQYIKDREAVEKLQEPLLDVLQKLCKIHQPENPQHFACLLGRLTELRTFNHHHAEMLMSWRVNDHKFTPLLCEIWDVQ
Sequence of UniProt P35869 (P35869 whole entry, looked up): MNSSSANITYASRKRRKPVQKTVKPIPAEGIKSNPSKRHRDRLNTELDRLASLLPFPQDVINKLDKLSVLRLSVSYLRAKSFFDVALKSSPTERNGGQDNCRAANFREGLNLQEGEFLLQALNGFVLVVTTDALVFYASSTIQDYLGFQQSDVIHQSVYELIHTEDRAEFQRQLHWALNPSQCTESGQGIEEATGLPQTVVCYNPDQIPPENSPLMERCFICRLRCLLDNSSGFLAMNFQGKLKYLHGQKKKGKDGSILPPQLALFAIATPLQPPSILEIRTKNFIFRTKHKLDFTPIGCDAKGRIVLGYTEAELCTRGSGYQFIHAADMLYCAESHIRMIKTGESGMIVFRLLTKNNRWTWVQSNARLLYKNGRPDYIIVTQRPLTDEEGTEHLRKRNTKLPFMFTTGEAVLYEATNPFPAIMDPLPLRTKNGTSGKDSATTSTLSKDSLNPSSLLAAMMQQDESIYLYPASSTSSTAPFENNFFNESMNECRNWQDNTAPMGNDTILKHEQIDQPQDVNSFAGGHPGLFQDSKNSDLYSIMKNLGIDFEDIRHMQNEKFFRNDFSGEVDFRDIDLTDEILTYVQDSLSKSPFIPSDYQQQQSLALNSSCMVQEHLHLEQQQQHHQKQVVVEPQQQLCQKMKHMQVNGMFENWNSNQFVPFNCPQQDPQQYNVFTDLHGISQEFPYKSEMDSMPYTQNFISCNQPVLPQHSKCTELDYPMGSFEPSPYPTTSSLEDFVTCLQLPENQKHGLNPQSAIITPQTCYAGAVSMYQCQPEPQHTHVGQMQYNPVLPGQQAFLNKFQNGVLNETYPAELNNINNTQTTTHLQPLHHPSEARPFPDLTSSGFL
Sequence of UniProt P16473 (P16473 whole entry, looked up): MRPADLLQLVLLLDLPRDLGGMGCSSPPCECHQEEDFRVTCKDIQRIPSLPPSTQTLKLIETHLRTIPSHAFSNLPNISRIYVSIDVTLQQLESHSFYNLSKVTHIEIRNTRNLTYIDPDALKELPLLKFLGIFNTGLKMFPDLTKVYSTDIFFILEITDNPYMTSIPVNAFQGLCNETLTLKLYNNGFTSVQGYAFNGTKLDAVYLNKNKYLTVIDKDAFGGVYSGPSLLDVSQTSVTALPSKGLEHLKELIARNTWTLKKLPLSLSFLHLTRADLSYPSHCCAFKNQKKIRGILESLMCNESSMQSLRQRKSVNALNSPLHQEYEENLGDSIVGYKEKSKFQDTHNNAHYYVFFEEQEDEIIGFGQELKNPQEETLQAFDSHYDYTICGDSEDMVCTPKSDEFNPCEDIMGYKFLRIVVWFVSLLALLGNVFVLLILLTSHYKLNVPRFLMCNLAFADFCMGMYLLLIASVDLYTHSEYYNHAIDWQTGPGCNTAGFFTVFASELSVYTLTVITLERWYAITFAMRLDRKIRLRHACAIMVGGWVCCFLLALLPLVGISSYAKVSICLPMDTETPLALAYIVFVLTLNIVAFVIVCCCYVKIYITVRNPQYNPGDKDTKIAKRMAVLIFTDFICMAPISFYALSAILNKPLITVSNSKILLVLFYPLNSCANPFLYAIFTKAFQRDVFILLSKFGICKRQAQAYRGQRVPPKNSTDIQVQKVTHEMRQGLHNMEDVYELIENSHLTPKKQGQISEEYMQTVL
Sequence of UniProt P37231 (P37231 whole entry, looked up): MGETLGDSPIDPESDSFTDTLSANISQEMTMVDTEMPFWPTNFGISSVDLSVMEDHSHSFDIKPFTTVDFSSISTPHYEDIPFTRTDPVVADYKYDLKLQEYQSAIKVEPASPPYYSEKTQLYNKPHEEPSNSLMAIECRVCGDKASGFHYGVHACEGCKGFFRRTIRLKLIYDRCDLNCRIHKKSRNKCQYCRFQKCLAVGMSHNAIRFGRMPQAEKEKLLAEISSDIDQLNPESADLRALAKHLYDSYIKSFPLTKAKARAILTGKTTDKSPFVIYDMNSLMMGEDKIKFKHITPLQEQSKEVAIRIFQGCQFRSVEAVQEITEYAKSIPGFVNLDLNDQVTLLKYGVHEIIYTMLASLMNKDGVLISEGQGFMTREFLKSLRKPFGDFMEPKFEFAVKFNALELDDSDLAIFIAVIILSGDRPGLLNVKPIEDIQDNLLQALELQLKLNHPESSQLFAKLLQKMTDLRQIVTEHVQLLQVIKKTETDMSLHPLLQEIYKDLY

Compound: O=C(Cl)/C=C/C(=O)Cl
- activation [1]: inconclusive: 9.62% [at 78.9 µM]
- Potency [2]: inactive
- Potency [3]: inactive

Compound: c1cc[n+]2c(c1)-c1cccc[n+]1CC2
- Potency [4]: inconclusive: 16.9 µM [cytotoxic, partial curve, poor fit]
- Potency [5]: inconclusive: 33.5 µM [cytotoxic, single point]
- Potency [1]: inactive
- Potency [6]: inconclusive: 29.8 µM [cytotoxic, single point]
- Potency [7]: active: 29.8 µM

Compound: S=C=S
- Potency [8]: inactive

Compound: CNC(C)(C)Cc1ccccc1
- Potency [7]: inconclusive: 0.0335 µM [cytotoxic, full curve, poor fit]

Compound: COc1ccc(CN2CCNCC2)c(OC)c1OC
- Potency [6]: inactive
- Potency [9]: inactive

Compound: CC(C)(N)Cc1ccc(Cl)cc1
- Potency [10]: inconclusive: 18.8 µM [cytotoxic, partial curve]

Compound: CCCCCCCCSC(=O)Oc1cc(Cl)nnc1-c1ccccc1
- Potency [1]: inactive
- Potency [6]: inactive
- Potency [9]: inactive

Compound: CCCCn1cc[n+](C)c1.[Cl][Fe-]([Cl])([Cl])[Cl]
- Potency [6]: inactive

Compound: COc1cc(OC)nc(NC(=O)NS(=O)(=O)c2ncccc2C(=O)N(C)C)n1
- Potency [11]: inactive

Compound: Clc1nc(Cl)nc(Nc2ccccc2Cl)n1
- Potency [12]: inconclusive: 68.5 µM [activator, partial curve, poor fit]
- Potency [13]: inactive

Compound: O=NN(CCO)CCO
- Potency [14]: inactive

Compound: CCCN(CCC)C(=O)Cc1c(-c2ccc(Cl)cc2)nc2ccc(Cl)cn12
- activity change, negative = inhibition [15]: inconclusive: -35.2%
- Potency [16]: inconclusive: 26.8 µM [activator, partial curve, poor fit]
- Potency [8]: inconclusive: 26.8 µM [activator, single point]
- Potency [17]: inconclusive: 23.7 µM [cytotoxic, partial curve]
- Potency [10]: inconclusive: 33.5 µM [cytotoxic, partial curve, poor fit]
- Potency [7]: inconclusive: 29.8 µM [cytotoxic, partial curve]

Compound: COP(=S)(OC)Oc1ccc(S(N)(=O)=O)cc1
- Potency [12]: inconclusive: 37.6 µM [activator, partial curve, poor fit]
- Potency [14]: inactive
- Potency [18]: inactive

Compound: C1CS1
- Potency [4]: inactive

Compound: Clc1cccc(N2CCNCC2)c1
- Potency [7]: inconclusive: 7.5 µM [cytotoxic, single point]

Compound: O=S(=O)(c1ccccc1)c1ccccc1
- Potency [15]: inactive

Compound: CCCCOP(=O)(CCCC)OCCCC
- Potency [16]: inactive
- Potency [17]: inactive

Compound: C[C@H](N)[C@H](O)c1ccc(O)c(O)c1
- Potency [5]: inconclusive: 33.5 µM [cytotoxic, partial curve, poor fit]
- Potency [3]: active: 10.7 µM
- Potency [14]: active: 19 µM
- Potency [8]: active: 21.3 µM
- Potency [13]: inconclusive: 0.239 µM [cytotoxic, single point]

Compound: Clc1ccc(Oc2ccccc2)cc1
- Potency [3]: inconclusive: 61.6 µM [activator, single point]
- Potency [14]: inconclusive: 61.6 µM [activator, single point]

Compound: CC(C)(C)NC[C@H](O)c1ccc(O)cc1Cl
- Potency [12]: inconclusive: 29.8 µM [activator, partial curve, poor fit]
- Potency [1]: inactive

Compound: O=[N+]([O-])c1cc(Cl)ccc1Cl
- Potency [3]: inconclusive: 61.6 µM [activator, partial curve, poor fit]
- Potency [14]: inconclusive: 61.6 µM [activator, partial curve, poor fit]

Compound: Cc1coc2c1CCC(C)C2 (stereo not given)
- Potency [12]: inconclusive: 5.01 µM [activator, full curve, poor fit]
- Potency [19]: inconclusive: 0.0355 µM [cytotoxic, full curve, poor fit]

Compound: CCCCC(=O)Cl
- Potency [19]: inactive
- Potency [13]: inactive

Compound: O=C(O)C(O)C(O)C(=O)O (stereo not given)
- Potency [14]: inactive

Compound: COC(=O)c1ccccc1S(=O)(=O)NC(=O)N(C)c1nc(C)nc(OC)n1
- Potency [15]: inactive

Compound: O=S1(=O)OCCO1
- activity change, negative = inhibition [15]: inconclusive: -23.3% [at 81.1 µM]

Compound: O=C(Cl)C(Cl)(Cl)Cl
- Potency [15]: inactive
- Potency [16]: inactive

Compound: CCOc1cccc(C2(N3CCN(c4ccccc4)CC3)CCC(C)CC2)c1 (stereo not given)
- Potency [12]: inconclusive: 34.4 µM [activator, partial curve, poor fit]
- Potency [18]: inactive

Compound: CC(O)CCl (stereo not given)
- Potency [15]: inactive
- Potency [2]: inactive

Compound: CC(C)c1ccc(O)cc1
- Potency [19]: inactive

Compound: CNCC(=O)c1ccc(O)c(O)c1
- Potency [11]: inactive
- Potency [5]: inconclusive: 37.6 µM [cytotoxic, partial curve, poor fit]
- Potency [19]: inactive
- Potency [18]: inactive

Compound: CS(=O)(=O)c1ccc(C(=O)C2C(=O)CCCC2=O)c(Cl)c1COCC(F)(F)F
- activation [1]: inconclusive: -11.8%

Compound: COc1cc(C[C@@H](C)N)c(OC)cc1Br
- activation [1]: inconclusive: -10.3% [at 78.9 µM]
- Potency [16]: inconclusive: 63.3 µM [activator, single point]
- Potency [8]: inconclusive: 63.3 µM [activator, single point]
- Potency [10]: inconclusive: 31.5 µM [cytotoxic, partial curve]

Compound: CCN[C@@H](C)Cc1ccccc1
- Potency [16]: active: 0.154 µM
- Potency [8]: inactive
- Potency [10]: inactive
- Potency [7]: inactive

Compound: CCC1(c2ccccc2)C(=O)N(COC)C(=O)N(COC)C1=O
- Potency [19]: inactive

Compound: NCC1(CC(=O)O)CCCCC1
- Potency [4]: inconclusive: 0.0007 µM [cytotoxic]
- Potency [18]: inactive

Compound: CCC(C)n1c(=O)[nH]c(C)c(Br)c1=O (stereo not given)
- Potency [4]: inactive
- Potency [12]: inconclusive: 68.5 µM [activator, single point]
- Potency [14]: inactive
- Potency [18]: inconclusive: 76.9 µM [falling, partial curve, poor fit]
